Among the data in PMC13121807 are binding values, retold here.

Amino acid sequences for entries named in this document (tags omitted). Residues count along the entry.
UniProt P19634: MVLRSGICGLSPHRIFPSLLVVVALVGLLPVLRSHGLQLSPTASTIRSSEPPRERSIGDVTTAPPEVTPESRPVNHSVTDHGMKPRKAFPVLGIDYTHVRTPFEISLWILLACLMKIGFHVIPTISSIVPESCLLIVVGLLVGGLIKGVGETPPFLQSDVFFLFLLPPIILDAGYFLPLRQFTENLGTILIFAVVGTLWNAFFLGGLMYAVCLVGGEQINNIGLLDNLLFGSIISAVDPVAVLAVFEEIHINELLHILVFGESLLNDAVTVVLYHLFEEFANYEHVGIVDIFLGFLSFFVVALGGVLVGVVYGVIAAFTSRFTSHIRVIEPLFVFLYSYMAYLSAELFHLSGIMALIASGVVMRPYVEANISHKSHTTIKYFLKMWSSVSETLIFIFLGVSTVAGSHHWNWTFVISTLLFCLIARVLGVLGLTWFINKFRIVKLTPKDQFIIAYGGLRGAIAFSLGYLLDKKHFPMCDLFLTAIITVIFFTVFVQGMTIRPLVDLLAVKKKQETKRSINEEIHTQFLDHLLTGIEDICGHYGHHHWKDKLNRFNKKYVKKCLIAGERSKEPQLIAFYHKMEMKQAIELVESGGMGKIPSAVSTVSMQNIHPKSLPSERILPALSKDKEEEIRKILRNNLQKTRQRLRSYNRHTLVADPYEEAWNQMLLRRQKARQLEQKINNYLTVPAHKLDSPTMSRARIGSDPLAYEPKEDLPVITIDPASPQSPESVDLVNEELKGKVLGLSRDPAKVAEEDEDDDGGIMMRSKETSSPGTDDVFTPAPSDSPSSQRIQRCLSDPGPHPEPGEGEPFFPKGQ
UniProt P48764, residues 26-834: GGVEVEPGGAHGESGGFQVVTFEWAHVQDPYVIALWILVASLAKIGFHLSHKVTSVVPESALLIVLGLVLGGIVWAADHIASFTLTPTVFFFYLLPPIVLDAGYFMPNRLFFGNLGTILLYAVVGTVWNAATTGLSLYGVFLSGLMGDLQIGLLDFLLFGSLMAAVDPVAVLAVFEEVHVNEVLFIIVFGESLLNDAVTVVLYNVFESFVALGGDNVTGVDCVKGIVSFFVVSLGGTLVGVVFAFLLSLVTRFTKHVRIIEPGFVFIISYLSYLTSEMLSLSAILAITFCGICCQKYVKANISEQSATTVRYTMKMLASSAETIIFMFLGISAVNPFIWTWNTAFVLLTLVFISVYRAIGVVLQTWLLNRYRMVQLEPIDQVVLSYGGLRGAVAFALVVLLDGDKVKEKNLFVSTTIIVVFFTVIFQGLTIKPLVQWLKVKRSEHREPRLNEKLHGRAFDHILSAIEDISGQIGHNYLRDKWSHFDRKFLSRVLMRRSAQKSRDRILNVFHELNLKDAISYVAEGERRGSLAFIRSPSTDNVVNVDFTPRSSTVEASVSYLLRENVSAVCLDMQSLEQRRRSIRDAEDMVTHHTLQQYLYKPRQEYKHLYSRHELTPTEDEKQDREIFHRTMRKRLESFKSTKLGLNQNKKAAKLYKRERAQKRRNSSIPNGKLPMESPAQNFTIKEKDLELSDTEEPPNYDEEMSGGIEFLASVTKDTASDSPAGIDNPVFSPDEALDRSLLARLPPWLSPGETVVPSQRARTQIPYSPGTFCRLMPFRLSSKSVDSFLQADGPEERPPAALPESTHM

These are yes or no findings as the source states them, for the method shown. In cells and extracts the contact can be indirect. Some results given as binding are weak or reduced against the parent protein; the word gives no strength. For some assays here: Sequences can lack the tags named with a protein.

The target of assay [1] is T1, cystinosinLKG-DsRed (human) (UniProt O60931).
T1 sequence: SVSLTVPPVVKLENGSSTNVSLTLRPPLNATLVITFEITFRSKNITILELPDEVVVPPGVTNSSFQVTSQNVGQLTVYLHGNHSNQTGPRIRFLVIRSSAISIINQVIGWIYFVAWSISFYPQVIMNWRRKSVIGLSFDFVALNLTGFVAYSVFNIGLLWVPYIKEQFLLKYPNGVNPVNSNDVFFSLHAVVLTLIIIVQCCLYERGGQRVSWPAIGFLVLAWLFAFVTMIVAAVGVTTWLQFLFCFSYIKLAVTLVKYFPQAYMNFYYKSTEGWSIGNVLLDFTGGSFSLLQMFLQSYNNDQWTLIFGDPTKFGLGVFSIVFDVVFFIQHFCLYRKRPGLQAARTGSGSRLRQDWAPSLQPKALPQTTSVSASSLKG
The experiment in a line: co-IP; HEK293T cells stably expressing the GFP and DsRed fusions; whole cell lysate (50 mM Tris-HCl pH 7.5, 150 mM NaCl, 1% Igepal CA-630); GFP-Trap magnetic beads or anti-RFP (6G6) on Protein A Dynabeads, 4 °C overnight; blots for GFP and DsRed; normal IgG as negative control.

Assay [2] addresses T1, cystinosinLKG-DsRed (human). The assay is described as follows: co-IP; CTNS-deficient HK-2 cells stably expressing the GFP and DsRed fusions; whole cell lysate (50 mM Tris-HCl pH 7.5, 150 mM NaCl, 1% Igepal CA-630); GFP-Trap magnetic beads or anti-RFP (6G6) on Protein A Dynabeads, 4 °C overnight; blots for GFP and DsRed; normal IgG as negative control.
For assay [3], the target named is NHE1-GFP (human) (UniProt P19634). The experiment in a line: co-IP; HEK293T cells stably expressing the GFP and DsRed fusions; whole cell lysate (50 mM Tris-HCl pH 7.5, 150 mM NaCl, 1% Igepal CA-630); GFP-Trap magnetic beads or anti-RFP (6G6) on Protein A Dynabeads, 4 °C overnight; blots for GFP and DsRed; normal IgG as negative control.
Assay [4] has as its target T2, NHE2-GFP (human) (UniProt Q9UBY0).
T2 sequence: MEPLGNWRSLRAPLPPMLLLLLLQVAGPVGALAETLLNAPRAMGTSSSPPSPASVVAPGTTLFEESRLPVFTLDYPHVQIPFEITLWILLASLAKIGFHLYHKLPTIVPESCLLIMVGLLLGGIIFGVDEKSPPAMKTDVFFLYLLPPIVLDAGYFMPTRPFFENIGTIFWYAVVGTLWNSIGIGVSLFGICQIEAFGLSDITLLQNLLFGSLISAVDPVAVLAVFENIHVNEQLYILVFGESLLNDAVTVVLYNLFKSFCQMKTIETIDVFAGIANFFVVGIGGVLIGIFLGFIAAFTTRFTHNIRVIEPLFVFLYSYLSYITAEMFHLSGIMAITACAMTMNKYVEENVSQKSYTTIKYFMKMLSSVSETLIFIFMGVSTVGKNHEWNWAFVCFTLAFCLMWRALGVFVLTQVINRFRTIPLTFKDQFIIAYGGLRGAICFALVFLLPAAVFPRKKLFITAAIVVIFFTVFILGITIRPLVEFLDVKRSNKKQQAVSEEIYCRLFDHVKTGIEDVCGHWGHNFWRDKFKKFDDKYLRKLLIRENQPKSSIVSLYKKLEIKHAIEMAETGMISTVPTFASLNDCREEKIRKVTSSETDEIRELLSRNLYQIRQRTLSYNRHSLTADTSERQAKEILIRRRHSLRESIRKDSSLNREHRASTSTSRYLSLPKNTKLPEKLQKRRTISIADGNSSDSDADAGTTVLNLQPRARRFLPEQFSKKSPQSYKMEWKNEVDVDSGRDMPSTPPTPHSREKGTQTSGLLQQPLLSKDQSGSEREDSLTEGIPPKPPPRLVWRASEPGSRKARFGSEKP
The description is as above.

In assay [5] the target is NHE3-GFP (human) (UniProt P48764). The assay is described as above.
Assay [6] shares this target. The experiment in a line: co-IP; CTNS-deficient HK-2 cells stably expressing the GFP and DsRed fusions; whole cell lysate (50 mM Tris-HCl pH 7.5, 150 mM NaCl, 1% Igepal CA-630); GFP-Trap magnetic beads or anti-RFP (6G6) on Protein A Dynabeads, 4 °C overnight; blots for GFP and DsRed; normal IgG as negative control.

On to NHE1-GFP (from UniProt P19634 1-815), for which the binding result in assay [1] was “no binding”.
Take NHE3-GFP (from UniProt P48764 26-834): the binding entry in assay [1] and in assay [2] was “binds” in each case.

B1: NHE2-GFP (protein, UniProt Q9UBY0 1-812)
chain: T2 sequence
As for B1, in assay [1], the binding result was “binds”.

B2: cystinosinLKG-DsRed (protein, UniProt O60931-2 23-400)
chain: T1 sequence
As for B2, the binding entry in assay [3] is reported as “no binding”; in assay [4], “binds”; in assay [5] it was “binds”; in assay [6], “binds”.
